Some of the results follow. At the low end of the ranking the order means little.

The target in this assay is SIX1 homeodomain (reference allele) (UniProt Q15475). Nature of the assay: universal protein binding microarray. The following applies: Universal all-10-mer PBM (8x60K, AMADID 030236), 300 nM GST-tagged protein, Alexa Fluor 488 anti-GST; buffer, salt, pH and temperature not stated; high values mean tight binding; most listed sequences are background and not binding sites; double strand, one strand shown.
As for GTGTGCGA, the binding signal was -0.139 E-score.

As to CTGGTTCC, the binding signal was -0.319 E-score.

Turning to AACGTTTC, the binding signal was -0.15 E-score.

With CTTAACAA, the binding signal is -0.144 E-score.

Turning to AAACTAGG, the binding signal was found to be 0.0144 E-score.

As to AGTTCCTC, the binding signal was -0.338 E-score.

Consider CACACTTA, for which the binding signal is -0.0661 E-score.

GTCCCGGA: the binding signal is -0.0696 E-score.

On to GCGCTACC, for which the binding signal was -0.222 E-score.

As for AAGAGGGG, the binding signal is -0.0356 E-score.

With CTGGCGTC, the binding signal is -0.17 E-score.

GTAAGCAC: the binding signal is -0.224 E-score.

Take CATTATCG: the binding signal is -0.0406 E-score.

As to CGGTCTAG, the binding signal is -0.0274 E-score.

Take GAATACGC: the binding signal came to 0.121 E-score.

Take ATCGCGTG: the binding signal came out at 0.311 E-score.

Take AGACCATA: the binding signal came to 0.19 E-score.

For the sequence AGCTTGCG, the binding signal was -0.249 E-score.

On to AAGTTCAG, for which the binding signal is -0.0682 E-score.

CTAGAGGA: the binding signal was -0.0624 E-score.

Turning to ACGCTACA, the binding signal was -0.0503 E-score.

Take CCTTAAGA: the binding signal is -0.112 E-score.

AGCTTCAC: the binding signal is -0.213 E-score.

With TGAGGACA, the binding signal was -0.0627 E-score.

On to CGTACTAA, for which the binding signal is -0.00533 E-score.

As to CCCATGGG, the binding signal is 0.152 E-score.

Turning to CTACGTCC, the binding signal is -0.0752 E-score.

Consider GCAGGCTA, for which the binding signal is -0.0332 E-score.

On to CACAGGAG, for which the binding signal is -0.00275 E-score.

For GAACTAAC, the binding signal was -0.171 E-score.

For the sequence TAATTAAA, the binding signal was -0.00652 E-score.

As for GACGCAAC, the binding signal is -0.182 E-score.

As to GTCGCAAA, the binding signal was -0.169 E-score.

Consider CATCGCAC, for which the binding signal was determined as 0.0772 E-score.

CGGTACAG: the binding signal stood at 0.129 E-score.

For CATAAGTC, the binding signal was -0.234 E-score.

With AGCACGTC, the binding signal is -0.201 E-score.

Consider CACTCAGA, for which the binding signal is 0.0324 E-score.

As to GGAACAAA, the binding signal was determined as 0.0244 E-score.

Take ACGAGTAC: the binding signal was -0.0781 E-score.

In the case of GCCCCGAA, the binding signal amounted to 0.0298 E-score.

Consider AATGACAC, for which the binding signal worked out at 0.297 E-score.

GACAGGCC: the binding signal was -0.0859 E-score.

ACTTTTAG: the binding signal was -0.0786 E-score.

For CGCCAATC, the binding signal was -0.068 E-score.

ACGTCCCC: the binding signal was -0.119 E-score.

Turning to GAATTTCC, the binding signal is -0.337 E-score.

With CTGCCAAC, the binding signal was -0.127 E-score.

Turning to CCCATAAG, the binding signal was determined as 0.0605 E-score.

Consider GACCGGAA, for which the binding signal was -0.146 E-score.

As to CATTTTAC, the binding signal was -0.0112 E-score.

AGGATCCT: the binding signal amounted to 0.385 E-score.

For the sequence GAACATAC, the binding signal is -0.0419 E-score.

TACGCGCA: the binding signal was found to be 0.174 E-score.

For ACGTAGTA, the binding signal is 0.0197 E-score.

For AGCTTCCA, the binding signal was -0.208 E-score.

In the case of AATGCCCT, the binding signal is -0.223 E-score.

With GCTCGGCC, the binding signal was -0.135 E-score.

For CTATGCCC, the binding signal came to 0.0179 E-score.

Regarding TGATTACA, the binding signal was -0.0151 E-score.

Consider ACCTCGCC, for which the binding signal was -0.0512 E-score.

ACGCTGAC: the binding signal was -0.0412 E-score.

As to TCTACAAA, the binding signal was -0.218 E-score.

Take ATGAGTTG: the binding signal was -0.16 E-score.

Regarding GATCCTGC, the binding signal worked out at 0.353 E-score.

Turning to GGTTCTTA, the binding signal was -0.0137 E-score.

Regarding ACACGACA, the binding signal was 0.0657 E-score.

For CCACCGGA, the binding signal was 0.109 E-score.

On to CGCGCGCA, for which the binding signal was -0.0647 E-score.

In the case of CGAGCAGA, the binding signal was -0.175 E-score.

Consider GAGCTCAC, for which the binding signal is 0.0227 E-score.

For TATTTCGA, the binding signal is 0.129 E-score.

On to CCTCGACG, for which the binding signal was -0.0194 E-score.

Regarding GTCAGCAC, the binding signal is -0.211 E-score.

For the sequence AGCGATGG, the binding signal was 0.0163 E-score.

As to ACTAGCTG, the binding signal was -0.0085 E-score.

AATTCTAG: the binding signal is -0.0361 E-score.

Turning to CAAAGCAC, the binding signal is -0.12 E-score.

As for ACAGTTAA, the binding signal was -0.137 E-score.

Consider GCCGTCCA, for which the binding signal is -0.0993 E-score.

On to TGCTCCAA, for which the binding signal was -0.133 E-score.

For GCATCTCA, the binding signal was determined as 0.186 E-score.

On to AGTCGATC, for which the binding signal amounted to 0.234 E-score.

Regarding AAGATGAG, the binding signal was -0.0829 E-score.

As for CAACTCCA, the binding signal is -0.117 E-score.

Regarding ACCAATGG, the binding signal was found to be 0.046 E-score.

Regarding ACTTCAAC, the binding signal was -0.0833 E-score.

Consider GATCTGGA, for which the binding signal is 0.274 E-score.

For AGCCTACC, the binding signal was -0.00394 E-score.

Turning to AGAATAAT, the binding signal is 0.0944 E-score.

Regarding GTGCATCA, the binding signal was -0.114 E-score.

As to CCGCACAC, the binding signal was -0.0101 E-score.

As for ACTATTAC, the binding signal is 0.0512 E-score.

With GCTATCCA, the binding signal is 0.204 E-score.

As to AAACTGTG, the binding signal is -0.0816 E-score.

Turning to CACCGTCA, the binding signal is -0.106 E-score.

Take ATCTTAAC: the binding signal stood at 0.0596 E-score.

ATCCCTCA: the binding signal was determined as 0.312 E-score.

As for AGCACTGG, the binding signal is 0.164 E-score.

With CCCTGCAC, the binding signal was -0.0879 E-score.

As for AGCGCGGG, the binding signal was 0.108 E-score.

As to CGGCCATC, the binding signal was -0.127 E-score.

Take AAATTCAC: the binding signal was -0.268 E-score.

Take GTAATATA: the binding signal worked out at 0.226 E-score.

In the case of GCTAGAAC, the binding signal is -0.155 E-score.

On to CCGGATCG, for which the binding signal stood at 0.417 E-score.

In the case of AGGCGACA, the binding signal was -0.0203 E-score.

As for GGAACATA, the binding signal was -0.0283 E-score.

Consider CCGCCCCG, for which the binding signal was 0.16 E-score.

As to GCCGGTGA, the binding signal is 0.105 E-score.

With CACGCCGC, the binding signal was -0.356 E-score.

On to AGTATGGA, for which the binding signal was -0.0313 E-score.

ACTAGATA: the binding signal was determined as 0.304 E-score.

For the sequence CCCGAGCC, the binding signal turned out to be 0.0921 E-score.

On to CCCAACGA, for which the binding signal is -0.119 E-score.

Turning to GGATGAAC, the binding signal was found to be 9.5e-05 E-score.

On to CGGTTAGA, for which the binding signal was found to be 0.0447 E-score.

In the case of CATGGAAA, the binding signal was -0.264 E-score.

On to ATGGTTGA, for which the binding signal was -0.0669 E-score.

Turning to CCACGACG, the binding signal is -0.13 E-score.

Consider AGTAAGCA, for which the binding signal is -0.222 E-score.

Consider CTAAATGA, for which the binding signal was determined as 0.0973 E-score.

For GGGAAACC, the binding signal worked out at 0.162 E-score.

For AGGTAACG, the binding signal is -0.202 E-score.

As for AAGATCCA, the binding signal was 0.209 E-score.

On to ATTATTCC, for which the binding signal came out at 0.0344 E-score.

For the sequence AATCCACC, the binding signal came out at 0.126 E-score.

As for GTAAACGA, the binding signal was determined as 0.125 E-score.

As to GACCAAGC, the binding signal was -0.217 E-score.

As to CGTGATCA, the binding signal came out at 0.181 E-score.

ATGCTTTA: the binding signal worked out at 0.00997 E-score.

As to ATGGTCAC, the binding signal stood at 0.0109 E-score.

In the case of AGACATTG, the binding signal stood at 0.0559 E-score.

With GGGCCCCA, the binding signal is -0.222 E-score.

As to ATACCCCG, the binding signal was 0.47 E-score.

For GCAAATAA, the binding signal was -0.134 E-score.

Turning to CGGGTTAA, the binding signal was 0.203 E-score.

Regarding CAGATGGA, the binding signal was 0.127 E-score.

ATAGAATA: the binding signal was 0.162 E-score.

CTACACGA: the binding signal worked out at 0.136 E-score.

CCAGGCCG: the binding signal was -0.139 E-score.

For the sequence AGGGCTCG, the binding signal is -0.00225 E-score.

AGGTGGCG: the binding signal was -0.134 E-score.

Turning to CGGCTTGC, the binding signal is -0.165 E-score.

With AGATTTCC, the binding signal was -0.128 E-score.

For the sequence ATAAACCC, the binding signal is 0.188 E-score.

With CAATGACC, the binding signal is -0.103 E-score.

As to ATCCCTGA, the binding signal is 0.272 E-score.

AAAACTGT: the binding signal is -0.138 E-score.

For the sequence AACAGCTG, the binding signal was -0.223 E-score.

Take GCCCGTGA: the binding signal was 0.00892 E-score.

Regarding AATCTCAG, the binding signal amounted to 0.00664 E-score.

Regarding GAATAGCA, the binding signal was -0.0444 E-score.

As for ATCGGGTA, the binding signal turned out to be 0.337 E-score.

In the case of AAGCGCAT, the binding signal came to 0.0081 E-score.

Take CACCTCCA: the binding signal was found to be 0.0923 E-score.

For ACCGGGTA, the binding signal worked out at 0.274 E-score.

With CTAGGAAC, the binding signal is -0.285 E-score.

Consider CTAACTGC, for which the binding signal was -0.258 E-score.

ACGGCGGC: the binding signal is -0.277 E-score.

On to CGCACATC, for which the binding signal is -0.121 E-score.

With GACACCTC, the binding signal was found to be 0.397 E-score.

As to CGAGTTAA, the binding signal was -0.0559 E-score.

Take TAGAGGCA: the binding signal was -0.105 E-score.

Consider CATTTCCC, for which the binding signal is -0.141 E-score.

As to CCGAGGTA, the binding signal was found to be 0.0983 E-score.

In the case of AAATCGGT, the binding signal was -0.169 E-score.

With GAGTTAGC, the binding signal is -0.131 E-score.

In the case of AGAGGGAA, the binding signal is -0.185 E-score.

As for ACGCATCC, the binding signal was 0.0357 E-score.

For CGGTACCG, the binding signal was -0.182 E-score.

Turning to AGAATGCA, the binding signal was -0.0977 E-score.
